# Experimental data: the supplement of paper PMC8728848
# The list shows a part of the results.
# Tests used:
# Assay in all cases: glycan array binding signal (z-score within array); higher = stronger binding
# Conditions in all cases: glycan notation: IUPAC condensed, linker removed; mutation: Y104F
# [1] = target: HexA(a1-3)GalNAc4S(b1-4)GlcA(b1-3)GalNAc4S(b1-4)GlcA(b1-3)GalNAc4S(b1-4)GlcA(b1-3)GalNAc4S(b1-4)GlcA(b1-3)GalNAc4S(b1-4)GlcA(b1-3)GalNAc4S(b1-4)GlcA(b1-3)GalNAc4S(b1-4)GlcA(b1-3)GalNAc4S
# Summary of the method: (§1)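 Glycan array data were curated from 3228 arrays in the Consortium for Functional Glycomics database and kept only where the protein sequence was available. Glycan names were converted to IUPAC-condensed notation, and columns mapping to the same glycan were averaged. The binding signal is a within-array Z-score, averaged across arrays of the same protein sequence at different concentrations or buffers and across linkers. Negative Z-scores can be read as non-binding.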
# [2] = target: HexA(a1-3)GalNAc4S(b1-4)IdoA(a1-3)GalNAc4S(b1-4)IdoA(a1-3)GalNAc4S(b1-4)IdoA(a1-3)GalNAc4S(b1-4)IdoA(a1-3)GalNAc4S(b1-4)IdoA(a1-3)GalNAc4S(b1-4)IdoA(a1-3)GalNAc4S(b1-4)IdoA(a1-3)GalNAc4S
# Summary of the method: as §1
# [3] = target: HexA(a1-3)GalNAc6S(b1-4)GlcA(b1-3)GalNAc6S(b1-4)GlcA(b1-3)GalNAc6S(b1-4)GlcA(b1-3)GalNAc6S(b1-4)GlcA(b1-3)GalNAc6S(b1-4)GlcA(b1-3)GalNAc6S(b1-4)GlcA(b1-3)GalNAc6S(b1-4)GlcA(b1-3)GalNAc6S
# Summary of the method: as §1
# [4] = target: HexA2S(a1-4)GlcNS6S(a1-4)IdoA2S(a1-4)GlcNS6S(a1-4)IdoA2S(a1-4)GlcNS6S(a1-4)IdoA2S(a1-4)GlcNS6S(a1-4)IdoA2S(a1-4)GlcNS6S(a1-4)IdoA2S(a1-4)GlcNS6S(a1-4)IdoA2S(a1-4)GlcNS6S(a1-4)IdoA2S(a1-4)GlcNS6S(a1-4)IdoA2S
# Summary of the method: as §1
# Man(a1-2)Man = target: Man(a1-2)Man
# Summary of the method: as §1
# [5] = target: Man(a1-2)Man(a1-2)Man(a1-3)[Man(a1-2)Man(a1-3)[Man(a1-2)Man(a1-6)]Man(a1-6)]Man(b1-4)GlcNAc(b1-4)GlcNAc
# Summary of the method: as §1
# [6] = target: Man(a1-2)Man(a1-2)Man(a1-3)[Man(a1-2)Man(a1-6)[Man(a1-3)]Man(a1-6)]Man(b1-4)GlcNAc(b1-4)GlcNAc
# Summary of the method: as §1
# [7] = target: Man(a1-2)Man(a1-2)Man(a1-3)[Man(a1-3)[Man(a1-6)]Man(a1-6)]Man(b1-4)GlcNAc(b1-4)GlcNAc
# Summary of the method: as §1
# [8] = target: Man(a1-2)Man(a1-3)[Man(a1-2)Man(a1-6)[Man(a1-3)]Man(a1-6)]Man(b1-4)GlcNAc(b1-4)GlcNAc
# Summary of the method: as §1
# [9] = target: Man(a1-2)Man(a1-3)[Man(a1-3)[Man(a1-6)]Man(a1-6)]Man(b1-4)GlcNAc(b1-4)GlcNAc
# Summary of the method: as §1
# Man(a1-3)Man = target: Man(a1-3)Man
# Summary of the method: as §1
# [10] = target: Man(a1-3)Man(a1-6)[Man(a1-3)]Man(b1-4)GlcNAc(b1-4)GlcNAc
# Summary of the method: as §1
# Man(a1-3)Man(b1-4)GlcNAc = target: Man(a1-3)Man(b1-4)GlcNAc
# Summary of the method: as §1
# Man(a1-3)[Man(a1-6)]Man = target: Man(a1-3)[Man(a1-6)]Man
# Summary of the method: as §1
# [11] = target: Man(a1-3)[Man(a1-6)]Man(a1-6)Man(b1-4)GlcNAc(b1-4)GlcNAc
# Summary of the method: as §1
# [12] = target: Man(a1-3)[Man(a1-6)]Man(a1-6)[Man(a1-3)]Man
# Summary of the method: as §1
# [13] = target: Man(a1-3)[Man(a1-6)]Man(a1-6)[Man(a1-3)]Man(b1-4)GlcNAc(b1-4)GlcNAc
# Summary of the method: as §1
# [14] = target: Man(a1-3)[Man(a1-6)]Man(b1-4)GlcNAc(b1-4)GlcNAc
# Summary of the method: as §1
# [15] = target: Man(a1-3)[Man(a1-6)]Man(b1-4)GlcNAc(b1-4)[Fuc(a1-6)]GlcNAc
# Summary of the method: as §1
# Man(a1-6)Man = target: Man(a1-6)Man
# Summary of the method: as §1
# [16] = target: Man(a1-6)Man(b1-4)GlcNAc(b1-4)GlcNAc
# Summary of the method: as §1
# Man(b1-4)GlcNAc = target: Man(b1-4)GlcNAc
# Summary of the method: as §1
# [17] = target: Neu5Ac(a2-3)Gal(b1-4)GlcNAc(b1-2)Man(a1-3)[Neu5Ac(a2-3)Gal(b1-4)GlcNAc(b1-2)Man(a1-6)]Man(b1-4)GlcNAc(b1-4)[Fuc(a1-6)]GlcNAc
# Summary of the method: as §1
# [18] = target: Neu5Ac(a2-6)Gal(b1-4)GlcNAc(b1-2)Man(a1-3)[Neu5Ac(a2-6)Gal(b1-4)GlcNAc(b1-2)Man(a1-6)]Man(b1-4)GlcNAc(b1-4)GlcNAc
# Summary of the method: as §1
# [19] = target: Xyl(b1-2)[Man(a1-3)][Man(a1-6)]Man(b1-4)GlcNAc(b1-4)GlcNAc
# Summary of the method: as §1
# [20] = target: Xyl(b1-2)[Man(a1-3)][Man(a1-6)]Man(b1-4)GlcNAc(b1-4)[Fuc(a1-3)]GlcNAc
# Summary of the method: as §1
binder,measurement,setting,value
"ZG16p (Homo sapiens), O60844 (protein) ARSSSYSGEYGGGGGKRFSHSGNQLDGPITALRVRVNTYYIVGLQVRYGKVWSDYVGGRNGDLEEIFLHPGESVIQVSGKYKWFLKKLLFVTDKGRYLSFGKDSGTSFNAVPLHPNTVLRFISGRSGSLIDAIGLHWDVYPSSCSRC",glycan array binding signal (z-score),[1],-0.298
same,glycan array binding signal (z-score),[2],0.634
same,glycan array binding signal (z-score),[3],-0.066
same,glycan array binding signal (z-score),[4],2.51
same,glycan array binding signal (z-score),Man(a1-2)Man,-0.062
same,glycan array binding signal (z-score),[5],-0.436
same,glycan array binding signal (z-score),[6],-0.292
same,glycan array binding signal (z-score),[7],-0.301
same,glycan array binding signal (z-score),[8],-0.485
same,glycan array binding signal (z-score),[9],-0.34
same,glycan array binding signal (z-score),Man(a1-3)Man,0.253
same,glycan array binding signal (z-score),[10],-0.211
same,glycan array binding signal (z-score),Man(a1-3)Man(b1-4)GlcNAc,0.015
same,glycan array binding signal (z-score),Man(a1-3)[Man(a1-6)]Man,0.473
same,glycan array binding signal (z-score),[11],-0.293
same,glycan array binding signal (z-score),[12],0.022
same,glycan array binding signal (z-score),[13],-0.351
same,glycan array binding signal (z-score),[14],-0.312
same,glycan array binding signal (z-score),[15],-0.285
same,glycan array binding signal (z-score),Man(a1-6)Man,0.091
same,glycan array binding signal (z-score),[16],-0.099
same,glycan array binding signal (z-score),Man(b1-4)GlcNAc,-0.37
same,glycan array binding signal (z-score),[17],-0.46
same,glycan array binding signal (z-score),[18],-0.485
same,glycan array binding signal (z-score),[19],-0.331
same,glycan array binding signal (z-score),[20],-0.355
